Among all 310,000 compounds or so, about 14,000 (4.5%) showed an effect of 50% or more. Effects have a minus sign here. Some of the results follow.
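Note: peak tail current of the secondary pulse compared with the same well before compound.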

human ether-à-go-go-related gene (hERG) potassium channel, sequence (Q12809 whole entry, looked up): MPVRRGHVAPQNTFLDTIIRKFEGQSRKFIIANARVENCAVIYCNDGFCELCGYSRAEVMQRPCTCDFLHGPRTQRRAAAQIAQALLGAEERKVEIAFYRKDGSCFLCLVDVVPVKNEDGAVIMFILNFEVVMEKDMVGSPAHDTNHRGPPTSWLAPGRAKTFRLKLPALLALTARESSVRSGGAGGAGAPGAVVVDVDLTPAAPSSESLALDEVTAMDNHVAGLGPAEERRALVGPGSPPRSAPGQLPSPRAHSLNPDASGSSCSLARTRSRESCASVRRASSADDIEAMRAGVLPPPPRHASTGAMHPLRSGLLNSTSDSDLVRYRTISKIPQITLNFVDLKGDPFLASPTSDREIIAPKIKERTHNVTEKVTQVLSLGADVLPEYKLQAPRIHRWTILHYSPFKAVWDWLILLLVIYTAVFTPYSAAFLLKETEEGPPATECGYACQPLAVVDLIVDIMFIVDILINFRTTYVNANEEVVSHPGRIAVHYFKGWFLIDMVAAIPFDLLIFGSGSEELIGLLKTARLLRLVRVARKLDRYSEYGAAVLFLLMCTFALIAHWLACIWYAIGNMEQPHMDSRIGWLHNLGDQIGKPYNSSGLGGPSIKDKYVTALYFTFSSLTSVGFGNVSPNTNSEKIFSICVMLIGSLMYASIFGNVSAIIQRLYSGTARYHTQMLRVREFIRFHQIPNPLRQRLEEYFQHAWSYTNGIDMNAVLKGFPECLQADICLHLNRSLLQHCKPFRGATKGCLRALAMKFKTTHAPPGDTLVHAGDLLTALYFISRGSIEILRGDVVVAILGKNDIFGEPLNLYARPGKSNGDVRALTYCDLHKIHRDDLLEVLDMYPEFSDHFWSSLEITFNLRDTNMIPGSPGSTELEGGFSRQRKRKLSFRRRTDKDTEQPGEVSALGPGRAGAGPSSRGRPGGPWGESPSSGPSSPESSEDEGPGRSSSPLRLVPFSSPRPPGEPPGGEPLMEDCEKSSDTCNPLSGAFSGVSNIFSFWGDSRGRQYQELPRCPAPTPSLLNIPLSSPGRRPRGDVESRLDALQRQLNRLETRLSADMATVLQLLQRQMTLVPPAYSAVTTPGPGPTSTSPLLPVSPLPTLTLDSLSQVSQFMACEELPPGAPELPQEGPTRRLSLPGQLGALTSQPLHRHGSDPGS

The test has as its target human ether-à-go-go-related gene (hERG) potassium channel (human, UniProt Q12809). Kind of test: primary screen, population patch clamp on CHO cells stably expressing hERG.
As for `CCOc1ccc(C(CC(=O)O)NC(=O)C23CC4CC(CC(C4)C2)C3)cc1OC` (stereo not drawn), the “hERG current change (%, negative = inhibition) at 10uM” value came to 30.2%.
In the case of `CCOC(=O)CNC1CC(=O)N(c2ccc(Br)cc2)C1=O` (stereo not drawn) it was 19.4%.
The figure for `COc1ccccc1-c1cc(C(=O)N2CCCC2)no1` is -8.67%.
In the case of `CC(C)(C)OC(=O)NCC(=O)Oc1cc2oc(=O)cc(-c3ccccc3)c2cc1Cl` it was 2.95%; in that of `Cc1ccc(C)c(NC(=O)CN2C(=O)NC(C)(c3ccc4c(c3)OCCO4)C2=O)c1` (stereo not drawn), 3.21%.
In the case of `COc1cc2c(N3CCOCC3)cc(O)c(CC(=O)Nc3ccccc3)c2cc1OC`, the “hERG current change (%, negative = inhibition) at 10uM” value was found to be 18.8%.
The figure for `Cc1ccc(OCc2cc(C(=O)N(C)CC3CCOCC3)no2)cc1C` is -13.1%.
As for `O=C(CN1C(=O)CCC1=O)Nc1ccc(Br)cc1`, the “hERG current change (%, negative = inhibition) at 10uM” value was -2.74%.
On to `COc1cc(CNc2ncn[nH]2)ccc1OCc1ccccc1C`, for which the “hERG current change (%, negative = inhibition) at 10uM” value was found to be 3.38%.
In the case of `Cc1nc2ccc(NC(=O)c3cccc(C(F)(F)F)c3)cc2o1` it was -13.1%; in that of `Cc1cc(S(=O)(=O)N2CCN(c3ccccc3F)CC2)ccc1-n1cnnn1`, -23.8%.
The figure for `Cc1[nH]c(=O)c(C#N)c(C)c1Cl` is 1.64%.
The figure for `CCn1cc(Br)c(C(=O)Nc2ccc(Cl)cc2Cl)n1` is 7.24%.
As to `Cc1ccc(/C=C/C(=O)O)cc1S(=O)(=O)N1CCc2ccccc2C1`, the “hERG current change (%, negative = inhibition) at 10uM” value is 6.57%.
The figure for `Cc1ccccc1N=C(NOCc1ccccc1)c1nonc1N` is -11.9%; for `COc1cccc(CNC(=O)c2nnn(CC(=O)Nc3c(C)cccc3C)c2N)c1` it is 19%.
The figure for `O=C(Cc1ccc(Cl)cc1)NCCCn1ccnc1` is 3.14%.
With `CCN(C(=O)c1ccc(Cl)c([N+](=O)[O-])c1)c1ccccc1`, the “hERG current change (%, negative = inhibition) at 10uM” value is given as -5.95%.
As to `COc1cc(/C=N/NC(=O)c2ccccc2Cl)ccc1Oc1ccc([N+](=O)[O-])cn1`, the “hERG current change (%, negative = inhibition) at 10uM” value was -31.5%.
In the case of `O=C(Nc1nnc(CC2=CCCCC2)s1)c1cccs1` it was 13.9%; in that of `CCCCS(=O)(=O)N1CN(S(=O)(=O)CCCC)C2NC(=O)NC21` (stereo not drawn), 5.71%; in that of `COc1ccc(-c2cc(N3CCCC3)n3ncnc3n2)cc1`, -64.5%.
The figure for `NS(=O)(=O)c1cccc(NC(=O)CSc2ncc(C(F)(F)F)cc2Cl)c1` is -16.2%; for `Cc1ccc(N(CC(=O)NC2CCCC2)C(=O)CNC(=O)c2cccs2)cc1F` it is 24.4%.
The figure for `O=C(CNS(=O)(=O)c1ccc(Br)cc1)NC1CCCC1` is 9.17%.
With `Cl.O=c1cc(CN2CCNCC2)nc2sccn12`, the “hERG current change (%, negative = inhibition) at 10uM” value was -0.707%.
In the case of `CCOC(=O)c1c(NC(=O)C(C)Sc2cn(C)c3ccccc23)sc2c1CCC2` (stereo not drawn) it was 18%.
The figure for `N#C/C(=C\c1cccn1-c1ccccc1)C(=O)NC1CCCCC1` is -13.6%.
In the case of `CCOC(=O)c1cnc2c(-c3ccccc3)c(C)nn2c1N` it was -0.771%.
On to `Cn1c(=O)c2c(SCC(=O)N3CCCCC3)nc(-c3ccccc3F)nc2n(C)c1=O`, for which the “hERG current change (%, negative = inhibition) at 10uM” value was 21.5%.
`Cc1ccc2nc(N3CC(C)OC(C)C3)nc(-c3ccccc3)c2c1` (stereo not drawn): the “hERG current change (%, negative = inhibition) at 10uM” value worked out at 5.88%.
In the case of `Cc1c(-n2c(SC(C)C(=O)NC(N)=O)nc3ccccc3c2=O)c(=O)n(-c2ccccc2)n1C` (stereo not drawn) it was 1.61%; in that of `CCc1nn(C(C)C(=O)NC2CCCCCC2)c(=O)c2cc3occc3n12` (stereo not drawn), -11.1%.
In the case of `CCN(CC(=O)Nc1ccc(NC(C)=O)cc1)C(=O)CCCOc1cccc(C)c1` it was 1.96%.
Turning to `O=C(NCCn1ccc2ccccc21)c1ccc(S(=O)(=O)N2CCCCC2)cc1`, the “hERG current change (%, negative = inhibition) at 10uM” value was -17%.
For the compound `Cc1cc2cc(CNC(=O)NC3CCCCC3)ccc2n1C`, the “hERG current change (%, negative = inhibition) at 10uM” value is given as -1.79%.
Turning to `O=C(/C=C/c1ccc(F)cc1)NC(=S)N1CCOCC1`, the “hERG current change (%, negative = inhibition) at 10uM” value was 19.5%.
In the case of `O=C(/C=C/c1ccccc1[N+](=O)[O-])NCc1cccnc1` it was -6.56%.
In the case of `c1ccc(CSCc2nc3ccccc3[nH]2)cc1` it was -1.93%.
The figure for `COc1cc(C(=O)N2CCN(C(=O)c3cc(-c4ccccc4)n[nH]3)CC2)cc(OC)c1OC` is -77.6%; for `Cc1c(-c2cccs2)[n+](=O)c2c(n1[O-])CCCCC2` it is 9.48%; for `Cc1c(CC(=O)O)c(=O)oc2c(C)c(OCc3ccccc3)ccc12` it is 17.7%.
Consider `CCn1c2ccccc2c2cc(/C=N/NC(=O)c3ccccc3)ccc21`, for which the “hERG current change (%, negative = inhibition) at 10uM” value is on record as 6.86%.
The figure for `Nc1cc(=O)[nH]c(=O)n1-c1cccc(F)c1` is 18.4%.
In the case of `COc1cc2c(cc1NC(=O)C(C)N1CCN(S(=O)(=O)c3ccccc3[N+](=O)[O-])CC1)oc1ccccc12` (stereo not drawn) it was -7.93%.
As to `O=C(CN1CCCN(S(=O)(=O)c2ccc(F)cc2)CC1)Nc1ccccc1Br`, the “hERG current change (%, negative = inhibition) at 10uM” value is recorded as -49.1%.
With `CCc1c(C)nc(N)nc1N1N=C1SC`, the “hERG current change (%, negative = inhibition) at 10uM” value turned out to be 0.299%.
In the case of `CC(=O)NCCCNS(=O)(=O)c1ccc(C)cc1` it was 10.2%.
In the case of `CC(OC(=O)c1ccc([N+](=O)[O-])s1)C(=O)Nc1ncc(Cl)cc1Cl` (stereo not drawn) it was -4.69%; in that of `COCCNC(=O)C(c1ccc(O)cc1)N(Cc1ccccc1)C(=O)CCC(=O)Nc1ccccn1` (stereo not drawn), -17.9%.
The figure for `COc1ccc(NC(=O)c2ccc3c(c2)NC(=O)CO3)cc1OC` is 16.5%.
Take `COc1ccc(CNC(=O)c2ccc(Br)cc2)cc1`: the “hERG current change (%, negative = inhibition) at 10uM” value is given as -3.83%.
In the case of `Cc1ccc(NC(=S)N2CCN(c3nccc(C(F)(F)F)n3)CC2)c(C)c1` it was -10.3%; in that of `CCCc1nc2cc(Cl)c([N+](=O)[O-])cc2o1`, 2.82%; in that of `NC(=O)COC(=O)/C=C/c1ccc2ccccc2n1`, 19%.
Turning to `CCN(CC)CCN=Cc1c(O)n(C2CCCCCC2)c(=O)[nH]c1=O`, the “hERG current change (%, negative = inhibition) at 10uM” value is reported as -32.7%.
As to `O=C(Cc1ccccc1)Oc1ccc(N2C(=O)C3CCCCC3C2=O)cc1` (stereo not drawn), the “hERG current change (%, negative = inhibition) at 10uM” value was -6.37%.

Source of the values: PMC4336329 (PLoS ONE, 2015).
